According to the supplement of paper PMC11417369:
The other results are listed elsewhere or left out.

What follows are sequences tested on PfSIP2 AP2 domain 1 (GST-tagged) (assay: gcPBM binding intensity (ln(normalized median fluorescence intensity)); higher = stronger DNA binding).
Method in brief: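 For binding intensity, the highest Masliner-normalised natural-log median intensity across replicate spots of either probe orientation was taken. Protein bound to the array was stained with Alexa488 anti-GST antibody and scanned at 488 nm. The protein, GST-tagged P. falciparum DNA-binding domains from E. coli at about 25 μg on average, had been applied for 1 h to an Agilent 4 × 180k array of primer-extended double-stranded 36-bp intergenic genomic probes and negative controls.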

Sequence	gcPBM binding intensity (ln)
TATATATATATATGTATGCACTTTAATTTTATAAGG	9.6
AATATAAATAAAAACACACACACACCGATATATATA [CACACA_site5283]	7.31
AAGATTAGGTTAATTAGTACTTATTATATTGTAATG [XGTACX_site3653]	6.85
TAATTTTTTTTAATAACACACATATAAATATAAATA [CACACA_site6521]	7.01
CATTTGCACCCGCACACACACATAAAAAGAAAAATA [CACACA_site4350]	11.6
GAAACAATTTGATATTGTACATAAATAAATAAAAAC [XGTACX_site8869]	7.33
CATATTATTATTTTGGTGCATACTTATATATATTTT	9.74
GTACCTATTTCATACACACACACACCCAAACAAACA [CACACA_site976]	7.61
AACATTGATAAATATAAACACACGAAAACAGACATA [CACACA_site490]	7.2
CTTGTACCTAGAAATACACACAATTCTATAACTTAT [CACACA_site7355]	6.99
AATGTGTAGACACGCACACACAAAAAAATATATATA [CACACA_site5595]	7.29
AATGTAGAAATGGGTGCACACACATATATAATATAT [CACACA_site8799]	11.7
GTTTTATTTTCAATGTGTACTTATTATTTGATATAC [XGTACX_site6402]	7.76
TATAAAAATATTTCTACACACATTAAAATATATATA [CACACA_site4770]	7.12
CATTTGCCCAGGCACACACACATAAAAAGAAAAATA [CACACA_site356]	7.16
AATGAAAGGATGCTGTGTACATATATATATATATAT [XGTACX_site7901]	9.65
TGGTCTTTTAAACAAAAATATAAATTTTTAAATATG [CACACA_negctrl_site392]	6.77
AAGAAAATTGTCTGAAGTACAAAACATTAATAATAT [XGTACX_site4864]	6.98
AATTTAATATAATGCACACATAAAAAAAAAAAATTC [CACACA_site1504]	7.54
AGCTTGTGGATGCAGGTGCTACATTTGTTCTATAAT [GTGCAC_site9645]	7.66
AAGATAAATTATTATAAATCAATTGTGCCAACAATA [CACACA_negctrl_site144]	6.69
TTTTTTTTGTGTTCAAGTACAAAATTTTAAAGGTCA [XGTACX_site4011]	7.12
GGTTATTTCACAGAATGTACTTATTATATATAAAAT [XGTACX_site8886]	7.26

Sequence	gcPBM binding intensity (ln)
TATATATATATATAAGCACACAAACAAAAAAAATTA [CACACA_site9293]	9.24
TTGAGTTGTATAAAAAGTACAAGGTTTTAACTAAAT [XGTACX_site1447]	7.07
TTATAATATTCATAAGGTACAGTTTATATATGTTAT [XGTACX_site8442]	7.03
AATAATCATGATCAAAGTACGTATGATTAAAAAAAA [XGTACX_site4916]	6.9
TATATGTAAATGGACACACACATATATATATATATA [CACACA_site3659]	9.36
TATGACCTTAGTAATTGTACACAAACATATTAATAT [XGTACX_site3340]	6.98
GAGTATATGATATATATATATATATAAAAAAAAAAA [GTGCAC_negctrl_site99]	7.15
TGGTATATTATTTTTTGTACACATAAATGAAACATT [XGTACX_site5345]	7.25
ATATAGATTCGACACACACACAAAAAAAAAAAAAAA [CACACA_site7677]	7.12
GTACCTATTTCATACACACACACACGCAAACAAACA [CACACA_site6590]	7.81
CGTATATCACCAACTAGTACATATAAATAAATAAAT [XGTACX_site8837]	7.27
ATATATATATATATATGTACATATTATTATTTTGAT [XGTACX_site4752]	9.23
ATATATATAATAAACACACACATATACATAGATGTA [CACACA_site5841]	7.49
ATATATATTATATGCACACTAATAAGACTATTTAAA [CACACA_site3554]	9.68
GTATATGTACTATACGCACACACACCCACATATATA [CACACA_site9062]	7.19
TTGTACATCTTTTGCACACGTAATGTTATTATAATA [CACACA_site1258]	7.5
TTATAACTTTTGAGCACACACAAGCATATAAATATA [CACACA_site6933]	6.89
AAATACTGTAAAAAAGCATGCCACTAATAATAATTA [TGCATGCA_site759]	6.81
TCATTTTTTTGTTTGGTGCGACTTGAAAATTTGATT	9.31
ACCTTTGTAGTTGGTCCACACACATATATGGAAGAA [CACACA_site8351]	7.47
CATACATTTAAAAAGTGTACGTATATGAAAAAAGGA [XGTACX_site6512]	7.58
TGTGTGTGTATATGTGTGCACATATAAAATAGAAGA [GTGCAC_site9714]	8.95
ATATGTGTTATTTATACATGCAGAAGAATATCTATT [TGCATGCA_site828]	7.06

Sequence	gcPBM binding intensity (ln)
ACATATATATAATATATATATCATCATATTTTCTTA [CACACA_negctrl_site853]	6.98
CTCAATATTATTACTACACACAAATTAAAATTTTCC [CACACA_site4203]	7.18
AGAGAATAAATATAAAGTACATATATAAATATATAT [XGTACX_site5055]	7.07
ATGTTATAAATCTTAATATATATATGCAAAAGAGAA [XGTACX_negctrl_site521]	7.55
ACATATACAAAACACACACACAACGTTTTAATAAAT [CACACA_site1979]	7.37
GTATATAAAAATTCATGTACATATTATTATTTTTAA [XGTACX_site658]	7.24
CATATACATATATGTAGTACGTGTTCTTCTATATGA [XGTACX_site8344]	7.11
TACATATACAGACACACACACACACCCCCACAAAAA [CACACA_site495]	8.23
AAATTGAATTAGTTAACACACAACTTTTATTTCATA [CACACA_site2840]	6.72
AATATATACATTTATATACACACCTATATATATATA [CACACA_site1972]	9.21
AAATTAATAAGTCACACACACATATATAATATATAT [CACACA_site799]	7.37
GTTATATGTTATATATATATATATATATATATATAT [TGCATGCA_negctrl_site428]	8.99
AGCATCATTTTACACACATGCAAATGTAAAATAGGA [TGCATGCA_site460]	6.98
ATAAAGATTAATTCAAGTACACATCAAATACTACAA [XGTACX_site8794]	6.92
TATATATATTTATGTACACACATCAATCATATTAAC [CACACA_site5127]	7.35
TTTACCTCTTCAATGGTGCAATAACTCAAAAATTTG	9.67
TTTTTATTTTATTAGTGTACTTTATATTTAACAATA [XGTACX_site1175]	7.24
AAAAAAAAAAAAAGTACACACATACCTATAAATATA [CACACA_site6937]	7.45
ATAAATAAAATAAAAGCACACAAAATGTAAATAATT [CACACA_site8895]	6.89
TTTATATACATTTTAAATTTTAATGTAACCCATGGG [TGCATGCA_negctrl_site115]	6.81
TATATATTTATAAATGAACACACACCCAATTTGAAT [CACACA_site9113]	7.29
TTTATTTTTATAAGAGCATGCACTGTTTAAAATGGT [TGCATGCA_site628]	9.06
TATTTCTGATTACATACACACATATACAGATATGAC [CACACA_site7490]	7.24

Sequence	gcPBM binding intensity (ln)
TATATACCTATATACACACACATATATAAATAAATA [CACACA_site7341]	7.1
TTATATATAATATATACACACACATGTATATATAAA [CACACA_site8603]	6.92
TATGTTCCATTTTTTGGTACACATACAATAACTGCT [XGTACX_site2256]	6.97
ATTACATACGAGCACACGTAAAAGTATAATATAAAA [GTGCAC_negctrl_site446]	6.94
TTTGTATTGTGCAGATGTACATTATAATATTGGATT [XGTACX_site5033]	7.25
AACAAATACAAAGAATAGTCATCTGAATGGTGTTAT [GTGCAC_negctrl_site685]	6.79
ATATGTCACTTGTATACACACATATATATTTCAATC [CACACA_site3256]	7.33
CTGAAAAAAAAGCTTGCACACGTATTTGCTTTATGT [CACACA_site8427]	7
TTACTTATAAATAAATATACAAAAATGTTATATATA [XGTACX_negctrl_site223]	6.89
TTTTTTGTGTTTGGTACACACGTTATAAAAAATAAA [CACACA_site4866]	7.18
TTTTTTTTTTTTGAAGTGCATTACTTTTTTTGTATT [GTGCAC_site9811]	7.64
GAAAATAGCTAAAATACACACAATTAAAAATTATTA [CACACA_site3506]	6.54
AGGAATATAAAGTGCACACATAATTTGGGGGCAAAA [CACACA_site258]	11.7
TTGTAAAACTTATAATGTACATTTTTTTTTTTTTTT [XGTACX_site5398]	7.27
AGGGACATCTATATCACACACAAAAATTAGTCCCTT [CACACA_site7330]	6.86
TTTTTTTTTTTTTGCACACACATTGAATTATTATTC [CACACA_site197]	7.28
ATAAGAAAATATAAAATGCACACTATAAATTGTATA [CACACA_site143]	7.87
TATATAGAGAGATATGCACACTGTATGAATGCCCCC [CACACA_site5476]	9.53
TATACCTATATACATACATGCAAATATATATTCATA [TGCATGCA_site269]	7.12
ATAAAATAAACATAAATAAACATAAATAAACAAAAA [CACACA_negctrl_site1270]	6.99
